Where a chain is given by its changes, count along the chain named. Some of the results follow.
T1: RBFOX1 RRM RbFoxmut (Fox-RRM*) (Homo sapiens, UniProt Q9NWB1 109-208, R118D;E147R;N151S;E152T)
T1 sequence: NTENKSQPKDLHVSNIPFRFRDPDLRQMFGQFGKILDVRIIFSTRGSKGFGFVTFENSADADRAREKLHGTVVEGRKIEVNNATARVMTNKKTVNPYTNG

B1: AGCCUCG (DNA:RNA)
RNA: GGGAGACCGGAAUUCAGAUUGUCCAGCCUCGUUAAAUCCCGUCGUAGCCACCA
DNA 1: CAATCTGAATTCCGGTCTCCC
DNA 2: TGGTGGCTACGACGGGATT
B2: AACGAUG (DNA:RNA)
RNA: B1 RNA with G26A, C28G, U29A, C30U
DNA 1: CAATCTGAATTCCGGTCTCCC
DNA 2: TGGTGGCTACGACGGGATT
B3: UAGUUGA (DNA:RNA)
RNA: B1 RNA with A25U, G26A, C27G, C28U, C30G, G31A
DNA 1: CAATCTGAATTCCGGTCTCCC
DNA 2: TGGTGGCTACGACGGGATT
B4: CUGUCCG (DNA:RNA)
RNA: B1 RNA with A25C, G26U, C27G, C28U, U29C
DNA 1: CAATCTGAATTCCGGTCTCCC
DNA 2: TGGTGGCTACGACGGGATT
B5: CCGCUGU (DNA:RNA)
RNA: B1 RNA with A25C, G26C, C27G, C30G, G31U
DNA 1: CAATCTGAATTCCGGTCTCCC
DNA 2: TGGTGGCTACGACGGGATT
B6: AAGUCAG (DNA:RNA)
RNA: B1 RNA with G26A, C27G, C28U, U29C, C30A
DNA 1: CAATCTGAATTCCGGTCTCCC
DNA 2: TGGTGGCTACGACGGGATT
B7: CUUAGGU (DNA:RNA)
RNA: GGGAGACCGGAAUUCAGAUUGUCCCUUAGGUUUAAAUCCCGUCGUAGCCACCA
DNA 1: CAATCTGAATTCCGGTCTCCC
DNA 2: TGGTGGCTACGACGGGATT
B8: UGGUCGA (DNA:RNA)
RNA: B1 RNA with A25U, C27G, C28U, U29C, C30G, G31A
DNA 1: CAATCTGAATTCCGGTCTCCC
DNA 2: TGGTGGCTACGACGGGATT
B9: UGAAAGA (DNA:RNA)
RNA: B7 RNA with C25U, U26G, U27A, G29A, U31A
DNA 1: CAATCTGAATTCCGGTCTCCC
DNA 2: TGGTGGCTACGACGGGATT
B10: AAGAAGG (DNA:RNA)
RNA: B1 RNA with G26A, C27G, C28A, U29A, C30G
DNA 1: CAATCTGAATTCCGGTCTCCC
DNA 2: TGGTGGCTACGACGGGATT
B11: GUCACAG (DNA:RNA)
RNA: B1 RNA with A25G, G26U, C28A, U29C, C30A
DNA 1: CAATCTGAATTCCGGTCTCCC
DNA 2: TGGTGGCTACGACGGGATT
B12: CCUUAAC (DNA:RNA)
RNA: B7 RNA with U26C, A28U, G29A, G30A, U31C
DNA 1: CAATCTGAATTCCGGTCTCCC
DNA 2: TGGTGGCTACGACGGGATT
B13: UCAUCCU (DNA:RNA)
RNA: B1 RNA with A25U, G26C, C27A, C28U, U29C, G31U
DNA 1: CAATCTGAATTCCGGTCTCCC
DNA 2: TGGTGGCTACGACGGGATT
B14: GGCUCAC (DNA:RNA)
RNA: B1 RNA with A25G, C28U, U29C, C30A, G31C
DNA 1: CAATCTGAATTCCGGTCTCCC
DNA 2: TGGTGGCTACGACGGGATT
B15: UUAACCC (DNA:RNA)
RNA: B7 RNA with C25U, U27A, G29C, G30C, U31C
DNA 1: CAATCTGAATTCCGGTCTCCC
DNA 2: TGGTGGCTACGACGGGATT
B16: GCCAACG (DNA:RNA)
RNA: B1 RNA with A25G, G26C, C28A, U29A
DNA 1: CAATCTGAATTCCGGTCTCCC
DNA 2: TGGTGGCTACGACGGGATT
B17: AGUUUGA (DNA:RNA)
RNA: B1 RNA with C27U, C28U, C30G, G31A
DNA 1: CAATCTGAATTCCGGTCTCCC
DNA 2: TGGTGGCTACGACGGGATT
B18: AUUUAGU (DNA:RNA)
RNA: B7 RNA with C25A, A28U, G29A
DNA 1: CAATCTGAATTCCGGTCTCCC
DNA 2: TGGTGGCTACGACGGGATT
B19: CCGUCUG (DNA:RNA)
RNA: B1 RNA with A25C, G26C, C27G, C28U, U29C, C30U
DNA 1: CAATCTGAATTCCGGTCTCCC
DNA 2: TGGTGGCTACGACGGGATT
B20: CUUGUCA (DNA:RNA)
RNA: B7 RNA with A28G, G29U, G30C, U31A
DNA 1: CAATCTGAATTCCGGTCTCCC
DNA 2: TGGTGGCTACGACGGGATT
B21: CCGGCAC (DNA:RNA)
RNA: B7 RNA with U26C, U27G, A28G, G29C, G30A, U31C
DNA 1: CAATCTGAATTCCGGTCTCCC
DNA 2: TGGTGGCTACGACGGGATT
B22: AUUGAAG (DNA:RNA)
RNA: B1 RNA with G26U, C27U, C28G, U29A, C30A
DNA 1: CAATCTGAATTCCGGTCTCCC
DNA 2: TGGTGGCTACGACGGGATT
B23: CGAAGGA (DNA:RNA)
RNA: B7 RNA with U26G, U27A, U31A
DNA 1: CAATCTGAATTCCGGTCTCCC
DNA 2: TGGTGGCTACGACGGGATT
B24: AACUGGA (DNA:RNA)
RNA: B1 RNA with G26A, C28U, U29G, C30G, G31A
DNA 1: CAATCTGAATTCCGGTCTCCC
DNA 2: TGGTGGCTACGACGGGATT
B25: AACAAUU (DNA:RNA)
RNA: B1 RNA with G26A, C28A, U29A, C30U, G31U
DNA 1: CAATCTGAATTCCGGTCTCCC
DNA 2: TGGTGGCTACGACGGGATT
B26: GUACCCG (DNA:RNA)
RNA: B1 RNA with A25G, G26U, C27A, U29C
DNA 1: CAATCTGAATTCCGGTCTCCC
DNA 2: TGGTGGCTACGACGGGATT
B27: UAAUGGC (DNA:RNA)
RNA: B7 RNA with C25U, U26A, U27A, A28U, U31C
DNA 1: CAATCTGAATTCCGGTCTCCC
DNA 2: TGGTGGCTACGACGGGATT
B28: AAACUGA (DNA:RNA)
RNA: B1 RNA with G26A, C27A, C30G, G31A
DNA 1: CAATCTGAATTCCGGTCTCCC
DNA 2: TGGTGGCTACGACGGGATT
B29: UUAUGAG (DNA:RNA)
RNA: B7 RNA with C25U, U27A, A28U, G30A, U31G
DNA 1: CAATCTGAATTCCGGTCTCCC
DNA 2: TGGTGGCTACGACGGGATT
B30: AGCCUAC (DNA:RNA)
RNA: B1 RNA with C30A, G31C
DNA 1: CAATCTGAATTCCGGTCTCCC
DNA 2: TGGTGGCTACGACGGGATT
B31: AACCAUA (DNA:RNA)
RNA: B1 RNA with G26A, U29A, C30U, G31A
DNA 1: CAATCTGAATTCCGGTCTCCC
DNA 2: TGGTGGCTACGACGGGATT

What follows are binders tested against T1, RBFOX1 RRM RbFoxmut (Fox-RRM*) (assay: EMSA; HiTS-Eq, 1 nM pool, 10 min; buffer printed only for the single-RNA assays: 10 mM Tris pH 7.5, 150 mM NaCl, 3.4 mM EDTA, 0.001% NP-40, 30 C). Conditions: tags: His6 N-terminal (pET28a); label: 5' 32P.
How it was run: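 Purified RbFox RRM, wild type or mutant, was incubated for 10 min in 50 µL with 1 nM of a 5′-radiolabelled RNA pool carrying 7 randomized nucleotides, whose flanks were annealed to DNA oligonucleotides, over a series of increasing protein concentrations. Unbound RNA was resolved on 8% native PAGE, cut out, reverse-transcribed, barcoded by PCR and sequenced on an Illumina HiSeq 2500. Relative association constants were derived from changes in read counts for each RNA species versus the control reaction and normalised to the cognate motif.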
B1 was tested, and the binding signal was 0.199 KA relative to UGCAUGU. For B2, the binding signal was 0.0668 KA relative to UGCAUGU. In the case of B3, the binding signal is reported as 0.0901 KA relative to UGCAUGU. With B4 the binding signal was 0.129 KA relative to UGCAUGU. With B5 the binding signal was 0.127 KA relative to UGCAUGU. In the case of B6, the binding signal is reported as 0.0887 KA relative to UGCAUGU. In the case of B7, the binding signal is reported as 0.133 KA relative to UGCAUGU. With B8 the binding signal was 0.151 KA relative to UGCAUGU. B9 was tested, and the binding signal was 0.0616 KA relative to UGCAUGU. B10 was tested, and the binding signal was 0.0703 KA relative to UGCAUGU. With B11 the binding signal was 0.0995 KA relative to UGCAUGU. In the case of B12, the binding signal is reported as 0.0615 KA relative to UGCAUGU. For B13, the binding signal was 0.0791 KA relative to UGCAUGU. For B14, the binding signal was 0.104 KA relative to UGCAUGU. With B15 the binding signal was 0.0583 KA relative to UGCAUGU. In the case of B16, the binding signal is reported as 0.0923 KA relative to UGCAUGU. For B17, the binding signal was 0.169 KA relative to UGCAUGU. B18 was tested, and the binding signal was 0.131 KA relative to UGCAUGU. In the case of B19, the binding signal is reported as 0.122 KA relative to UGCAUGU. For B20, the binding signal was 0.132 KA relative to UGCAUGU. B21 was tested, and the binding signal was 0.0571 KA relative to UGCAUGU. With B22 the binding signal was 0.141 KA relative to UGCAUGU. In the case of B23, the binding signal is reported as 0.0736 KA relative to UGCAUGU. B24 was tested, and the binding signal was 0.0617 KA relative to UGCAUGU. B25 was tested, and the binding signal was 0.0602 KA relative to UGCAUGU. With B26 the binding signal was 0.0877 KA relative to UGCAUGU. In the case of B27, the binding signal is reported as 0.102 KA relative to UGCAUGU. With B28 the binding signal was 0.0428 KA relative to UGCAUGU. B29 was tested, and the binding signal was 0.12 KA relative to UGCAUGU. In the case of B30, the binding signal is reported as 0.0767 KA relative to UGCAUGU. For B31, the binding signal was 0.0829 KA relative to UGCAUGU.
